{"source": "PubChem BioAssay AID1508623", "about": "(National Center for Advancing Translational Sciences (NCATS), 2021)", "note": "In all, about 48,000 compounds went through this assay and about 450 (0.94%) were called active. Inconclusive results, whose numbers are uncertain, are shown with a selection of clear calls. Calls come from the whole dose curve; as a rule, active = well fitted inhibition curve with a large enough effect; inconclusive = small, poorly fitted or top-dose-only effect; inactive = no such curve, though single readings can be large or run the other way. Where the call is inconclusive, the potency comes from a doubtful curve fit. Potency is the fitted concentration of half-maximal effect; tags give direction and shape of the fitted curve."}
{"assay": "Primary qHTS for Identification of Small Molecule Inhibitors of Huntingtin Promoter Activity; note: nearly all actives have a fitted effect of over 50% in size", "settings": "HEK293 HTT promoter firefly luciferase reporter (activity 0% = vehicle and -100% = no light), 24 h; series mostly up to 57.5 µM", "procedure,_shortened": "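HEK293 luciferase promoter-reporter cells (2,500/well) plated 24 h, then compounds added at up to 57.5 uM final for 24 h at 37 °C. Firefly luminescence by Dual-Glo, normalized to vehicle (0%) and zero RLU (-100%).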"}
{"smiles": "c1ccc(-c2oc3ncnc(NC[C@@H]4CCCO4)c3c2-c2ccccc2)cc1", "Potency": "inconclusive: 21.7 µM [inhibitor, partial curve]"}
{"smiles": "Cc1noc2ncnc(NCCc3ccccc3)c12", "Potency": "active: 14.1 µM"}
{"smiles": "COc1ccc(NS(=O)(=O)c2ccc3c(c2)CC(C)N3C(=O)C2CCC2)cc1OC", "note": "(stereo not given)", "Potency": "active: 1.78 µM"}
{"smiles": "Cc1ccc(NS(=O)(=O)c2ccc3nc(-c4ccccc4)[nH]c3c2)cc1Cl", "Potency": "inconclusive: 35.5 µM [inhibitor, single point]"}
{"smiles": "O=S(=O)(Nc1nc2n(n1)C(c1ccc(F)cc1)C=C(c1ccc(Cl)cc1)N2)c1ccccc1", "note": "(stereo not given)", "Potency": "inactive"}
{"smiles": "CSc1nn(CC(=O)Nc2ccc(C)cc2C)c(N)c1S(=O)(=O)c1ccc(Cl)cc1", "Potency": "inconclusive: 39.8 µM [inhibitor, partial curve, poor fit]"}
{"smiles": "C=C1c2cccc(O)c2C(O)=C2C(=O)[C@]3(O)C(O)=C(C(N)=O)C(=O)[C@@H](N(C)C)[C@@H]3[C@@H](O)[C@H]12", "Potency": "inactive"}
{"smiles": "CCCCOc1ccccc1NC(=O)CC1Sc2ccccc2NC1=O", "note": "(stereo not given)", "Potency": "inconclusive: 39.8 µM [inhibitor, single point]"}
{"smiles": "CCOC(=O)N1CCN(c2ncc3c(n2)CC(c2ccc(OC)c(OC)c2)CC3=O)CC1", "note": "(stereo not given)", "Potency": "inconclusive: 3.16 µM [inhibitor, single point]"}
{"smiles": "Cc1noc(/C=C/c2ccccc2F)c1S(=O)(=O)N1CCC(C(=O)NCc2ccco2)CC1", "Potency": "inconclusive: 35.5 µM [inhibitor, single point]"}
{"smiles": "COc1ccc(CCNC(=O)CCc2c(C)nc3cc(-c4ccc(Cl)cc4)nn3c2C)c(OC)c1", "Potency": "active: 2 µM"}
{"smiles": "CCOC(=O)c1ccccc1NC(=O)N1CCCn2nc(C)cc21", "Potency": "inactive"}
{"smiles": "Cc1cc(C)cc(N2C(=O)CSC23C(=O)N(CC(=O)NC2CCCCC2)c2ccccc23)c1", "note": "(stereo not given)", "Potency": "inconclusive: 22.4 µM [inhibitor, partial curve, poor fit]"}
{"smiles": "CC(=O)N1CCCc2cc(S(=O)(=O)N3CCC(C(=O)N(C)C4CCCCC4)CC3)ccc21", "Potency": "inconclusive: 25.1 µM [inhibitor, partial curve, poor fit]"}
{"smiles": "COc1ccc(OC)c(CCNC(=O)c2cnn(-c3ccccc3)c2-n2cccc2)c1", "Potency": "inconclusive: 25.1 µM [inhibitor, partial curve, poor fit]"}
{"smiles": "Cc1ccccc1Cn1nnc2c(=O)[nH]c(C3CCCN(C(=O)c4ccc(C(C)(C)C)cc4)C3)nc21", "note": "(stereo not given)", "Potency": "inconclusive: 35.5 µM [inhibitor, single point]"}
{"smiles": "CCOCCCNC(=O)C1CCCN(c2ncnc3onc(C)c23)C1", "note": "(stereo not given)", "Potency": "inconclusive: 11.2 µM [inhibitor, partial curve]"}
{"smiles": "CCOc1ccc(NC(=O)c2cnn(-c3ccccc3)c2-n2cccc2)cc1", "Potency": "inconclusive: 25.1 µM [inhibitor, single point]"}
{"smiles": "O=C(O)c1ccc(O)c2ncc(N3CCOCC3)cc12", "Potency": "inactive"}
{"smiles": "COc1ccc(NC(=O)C2CCN(S(=O)(=O)c3cc(-c4noc(C)n4)ccc3C)CC2)cc1", "Potency": "inconclusive: 31.6 µM [inhibitor, partial curve, poor fit]"}
{"smiles": "Cc1ccc(C)c(NC(=O)c2cc(S(=O)(=O)NCCc3ccccc3)ccc2F)c1", "Potency": "inconclusive: 31.6 µM [inhibitor, single point]"}
{"smiles": "CCOC(=O)C1CCCN(C(=O)c2ccc3c(c2)N(Cc2ccc(Cl)cc2)C(=O)c2ccccc2S3=O)C1", "note": "(stereo not given)", "Potency": "inactive"}
{"smiles": "Cc1noc(/C=C/c2ccccc2F)c1S(=O)(=O)N1CCC(C(=O)Nc2ccc(C#N)cc2)CC1", "Potency": "inconclusive: 20 µM [inhibitor, partial curve, poor fit]"}
{"smiles": "COc1cc2ncnc(-n3nc(-c4ccccn4)nc3N)c2cc1OC", "Potency": "inconclusive: 6.85 µM [inhibitor, full curve]"}
{"smiles": "O=C(Nc1cccc(C(F)(F)F)c1)Nc1cccs1", "Potency": "inactive"}
{"smiles": "CCCCN(CC)C(=O)C1CCCN(c2ncnc3c2nc2n3CCCCC2)C1", "note": "(stereo not given)", "Potency": "inconclusive: 7.94 µM [inhibitor, single point]"}
{"smiles": "CC1CCN(c2ccc(-c3nc(-c4ccccc4)no3)cc2[N+](=O)[O-])CC1", "Potency": "inconclusive: 2.51 µM [inhibitor, full curve, poor fit]"}
{"smiles": "CCc1cccc(C)c1NC(=O)CCCN1C(=O)C(c2ccccc2)Oc2cccnc21", "note": "(stereo not given)", "Potency": "inconclusive: 28.2 µM [inhibitor, partial curve, poor fit]"}
{"smiles": "CCOC(=O)c1c(C)[nH]c(C)c1S(=O)(=O)N(C)CC(=O)NCc1cccc(Br)c1", "Potency": "inactive"}
{"smiles": "Cc1cc(N2CCCCC2)nc2ccc(NC(=O)/C=C/c3ccc(OCCC(C)C)cc3)cc12", "Potency": "inconclusive: 0.447 µM [inhibitor, full curve]"}
{"smiles": "COc1ccc(NC(=O)CSc2nc(-c3cccs3)cc(C(F)(F)F)n2)c(OC)c1", "Potency": "inconclusive: 35.5 µM [inhibitor, single point]"}
{"smiles": "Oc1c(C(c2ccccc2Cl)N2CCN(Cc3ccccc3)CC2)sc2nc(-c3ccco3)nn12", "note": "(stereo not given)", "Potency": "inactive"}
{"smiles": "CCc1ccc(NC(=O)CSc2ccc(-c3cccs3)nn2)cc1", "Potency": "inconclusive: 25.1 µM [inhibitor, single point]"}
{"smiles": "CCOC(=O)c1cnc2ccc(OCC)cc2c1N1CCN(c2ccccc2F)CC1", "Potency": "inconclusive: 7.08 µM [inhibitor, single point]"}
{"smiles": "Cc1ccccc1C(=O)Nc1nc(-c2ccc(Br)cc2)ns1", "Potency": "inconclusive: 39.8 µM [inhibitor, single point]"}
{"smiles": "CCOC(=O)c1c(C)n(-c2ccccc2)c2ccc(OC(=O)c3cccc(Cl)c3)cc12", "Potency": "inactive"}
{"smiles": "CCOC(=O)c1ccc(CN(Cc2ccccc2)S(=O)(=O)c2ccc(Cl)cc2)cc1", "Potency": "inconclusive: 39.8 µM [inhibitor, single point]"}
{"smiles": "CC(=O)c1cc(-c2ccccc2)n(CC(=O)NCCc2ccc(C)cc2)c1C", "Potency": "inconclusive: 31.6 µM [inhibitor, single point]"}
{"smiles": "CC(C)Oc1ccc(CNC(=O)C2CCN(C(=O)N3CC(C)Oc4ccccc43)CC2)cc1", "note": "(stereo not given)", "Potency": "inconclusive: 14.1 µM [inhibitor, partial curve, poor fit]"}
{"smiles": "COc1ccc(OC)c(C2c3c(-c4ccc(Br)cc4)n[nH]c3C(=O)N2c2ccc(Cl)cc2)c1", "note": "(stereo not given)", "Potency": "inactive"}
